Source: the RNAGym collection of RNA variant scans (doi:10.7554/elife.90254)
Read counts are not given, so values of variants with three or more changes are uncertain.

B1: OR4K15 (parent)
chain: GUUAACGGUCAUAGGCCAUGGAAACUAGGAGCACCAUUUCGCUGCCAGUGAAGAAAUGAACAAAGAAAAUCUGGGCCAGGCAGGCAUCAAAAGAAAUAGUCUUGCGCUCAACCAGAAAGUCUGUAAUCAUUUUAAGGGUA

Variants of: B1
Assay: self-cleavage, relative activity (ratio to wild type); higher = more cleavage; in vitro, sequencing; the parent is a self-cleaving ribozyme
Variant A66U A86U U131C A134U G137C has a self-cleavage of 2.38.
A47U A54C A90G gave a self-cleavage of 0.41.
In the case of U19C A23G U38C A47G U49A A62G C113U U132C, the self-cleavage is reported as 0.03.
Work on A24G A59C U102C yielded a self-cleavage of 0.96.
Variant A4G U49C A52U A59G A134G has a self-cleavage of 0.89.
Variant U3C U57C A63G A68G A95G A114G G136A has a self-cleavage of 0.23.
With A36U U37C A86G A111G U120C U131C the self-cleavage was 0.
For A24U U108C A140G, the self-cleavage was 0.
In the case of A24C A94G U100C U132C, the self-cleavage is reported as 1.69.
A56G A59G A69G U130C U131C gave a self-cleavage of 0.87.
Work on A55U A56G A68G A91G U97C A116G U131C yielded a self-cleavage of 0.43.
With G14A U37C A59G the self-cleavage was 1.66.
A24G A67G A90G A111G A126G showed a self-cleavage of 0.
In the case of A18U A47G A54U A62G A92G A95G A125G, the self-cleavage is reported as 0.42.
With A92G A117G U131C the self-cleavage was 1.33.
U37C A51G A91G U103C showed a self-cleavage of 0.71.
U37C A51U A78G A91U A140G gave a self-cleavage of 0.19.
Work on A89U A92G A96G U102C A129G U130C yielded a self-cleavage of 0.89.
A66U A69G A89G showed a self-cleavage of 0.94.
For A24G U133G G137U, the self-cleavage was 0.58.
A36U A64G U70C U108C A129G showed a self-cleavage of 0.01.
For U57A A110G A134G, the self-cleavage was 0.05.
Variant A60G A90G A140G has a self-cleavage of 0.53.
Variant A11G A24G A51G A68G A95G has a self-cleavage of 1.51.
In the case of A13G A54G A59G, the self-cleavage is reported as 1.42.
In the case of A60G A67G A125G A129U, the self-cleavage is reported as 0.33.
A11G U12G U72A showed a self-cleavage of 0.94.
U43A A55G U120C showed a self-cleavage of 1.92.
A68G A98G U124C showed a self-cleavage of 0.38.
In the case of U37C U87C A118G, the self-cleavage is reported as 1.04.
In the case of G106U U131C U132C, the self-cleavage is reported as 0.
In the case of U9C U43C A69G U72C A94G A134G, the self-cleavage is reported as 0.24.
A59G U108C U127C showed a self-cleavage of 0.01.
In the case of U19A U108C A118G U124C, the self-cleavage is reported as 0.
With A22G U49A A68G the self-cleavage was 1.12.
Variant U43C U57C U130C U132A has a self-cleavage of 0.59.
Work on A24G A36G A67G yielded a self-cleavage of 0.93.
Variant U2C A30G A86U U102C U139A has a self-cleavage of 1.95.
A27U A36C A62G showed a self-cleavage of 1.43.
For A30G A68G A126G, the self-cleavage was 0.65.
For A86U A111G U133C, the self-cleavage was 0.02.
U37C A47G A63G U87C gave a self-cleavage of 1.31.
For A23G C25A A111G, the self-cleavage was 0.06.
Work on A30U A94U A111G U122A yielded a self-cleavage of 0.01.
In the case of U38C A64G U103C U127C A134G, the self-cleavage is reported as 0.55.
Variant U12C A18G U103C U122C A140G has a self-cleavage of 0.94.
U3C U108A A118G A140U gave a self-cleavage of 0.03.
For A11G A18U A22U A47U, the self-cleavage was 0.36.
Work on U39C A55G U57A A59G U131C U139C yielded a self-cleavage of 1.32.
Variant A22G U39C A67G U130C has a self-cleavage of 0.34.
In the case of A60G A68G U131C G137A, the self-cleavage is reported as 0.66.
With A62U U87G A134G the self-cleavage was 0.41.
For A23U C105U A118C U130C, the self-cleavage was 0.04.
With U37C C61A A63G A67G the self-cleavage was 1.49.
A30G U38A A60G showed a self-cleavage of 1.2.
In the case of A78G A92G A98G A111G, the self-cleavage is reported as 0.03.
For C17U U38C A51G, the self-cleavage was 1.21.
A24U A96U A111G showed a self-cleavage of 0.04.
Variant A4G A36G A94G U120C has a self-cleavage of 0.89.
Work on A11U A95G A111G A125G yielded a self-cleavage of 0.04.
Work on A68G A91G U100C yielded a self-cleavage of 2.37.
A54G A91U A95G showed a self-cleavage of 0.89.
With A18G U38C C46U U57A the self-cleavage was 1.53.
A22C C40A A54G A110G gave a self-cleavage of 0.24.
A24G U37C A90C A125G A126G U132C showed a self-cleavage of 0.41.
Work on A36U A94G A118G yielded a self-cleavage of 0.51.
U9C A59G G104A G123A gave a self-cleavage of 0.01.
In the case of U2A A68G G73U, the self-cleavage is reported as 0.15.
For A67G U122C G138A, the self-cleavage was 0.62.
For U70C A89G A114G U120C U122A, the self-cleavage was 0.
U39C U43C U49G A111G showed a self-cleavage of 0.08.
With U9C A11U A18G U26C U87C A135G the self-cleavage was 0.54.
Variant U9C A59G A86G A89G A96G has a self-cleavage of 2.19.
With A47G A52G A64G U103C A110G A125G A129G the self-cleavage was 0.
A54G A68G U122C U131C gave a self-cleavage of 0.66.
Work on A33G U57C A86G yielded a self-cleavage of 1.06.
For A55G U87C A118G U130C U132A, the self-cleavage was 0.44.
In the case of A33G A62U A63G A94G A96U, the self-cleavage is reported as 0.33.
A30U U108C U130C gave a self-cleavage of 0.02.
A55G U131C U132C A135G showed a self-cleavage of 1.08.
Work on A36U G41U A54G U127A yielded a self-cleavage of 2.16.
For U39A A78G A116G, the self-cleavage was 0.14.
With U2G A54G U122C the self-cleavage was 0.38.
Work on U3A A22G U39C A60G A90U yielded a self-cleavage of 0.59.
With U26A A56G U102C the self-cleavage was 1.48.
Variant A23U U43A A91G has a self-cleavage of 0.23.
With U2C A22G A63G the self-cleavage was 1.62.
Variant A23U U38C A56G U102C has a self-cleavage of 2.19.
Work on U43C A66U G74A yielded a self-cleavage of 0.28.
Variant A24G U70C A111G G123A has a self-cleavage of 0.02.
Variant A22G U39A A98U has a self-cleavage of 0.97.
For A5G U49A A55G A92G U122C G123U, the self-cleavage was 0.82.
Variant A5G A78G A140C has a self-cleavage of 0.07.
Variant A24G U38A A63G has a self-cleavage of 0.21.
For A60U A63G A78U A111G U122C U127A, the self-cleavage was 0.
Work on A22G A82U A126G yielded a self-cleavage of 0.13.
A22G U127C U139A showed a self-cleavage of 0.3.
With U43A A91G A96G U97C U102A the self-cleavage was 0.18.
Work on A18U A63U A118G yielded a self-cleavage of 1.18.
Work on U100C A111G A126G yielded a self-cleavage of 0.01.
A91G U108A U127C showed a self-cleavage of 0.02.
For A22G C85U A126G, the self-cleavage was 0.14.
Work on U9G A60G A69U yielded a self-cleavage of 1.62.
In the case of G31C A56G A67G A90G, the self-cleavage is reported as 1.32.
A22G U39C A55G A94G C121A gave a self-cleavage of 1.57.
A55G G74C A91G A118G U127C showed a self-cleavage of 0.02.
In the case of U57C A60G A67G, the self-cleavage is reported as 1.01.
A24G A62U A140U gave a self-cleavage of 1.17.
A114G A125C U127C showed a self-cleavage of 0.09.
In the case of A4G C45G U97C U100C A126G, the self-cleavage is reported as 0.79.
In the case of U2A A56U A86G U127G A140G, the self-cleavage is reported as 0.28.
U9C U100C U102C A117G gave a self-cleavage of 2.12.
For A54G A126G U131C, the self-cleavage was 1.08.
For G1A U38A A54G A55G U102C U120C, the self-cleavage was 0.89.
A63G A82U A96G showed a self-cleavage of 0.23.
A4G A24G U38C A62G U70C A91U A98G A118G gave a self-cleavage of 0.17.
Work on A68G A96G U102C yielded a self-cleavage of 2.16.
For A30G A66G U70C U132C A135G, the self-cleavage was 0.7.
Work on A67G A116G A135G yielded a self-cleavage of 0.96.
With A13G A18C A23U U43G A63G A90G the self-cleavage was 1.14.
With A55G A62U A82G U87C A91G the self-cleavage was 0.05.
With A55G A91G U127A the self-cleavage was 1.76.
In the case of G28A A52G A59G, the self-cleavage is reported as 0.94.
G65A A82G U120A U122C showed a self-cleavage of 0.45.
Variant A54G A94G A135U has a self-cleavage of 2.05.
Variant A18G A63G C105U G136A has a self-cleavage of 0.29.
Work on A47G U87C U108C yielded a self-cleavage of 0.01.
With A23G U38A A89G U108C the self-cleavage was 0.08.
U87A A90U A126U showed a self-cleavage of 1.43.
A11U U38A A111C A134U gave a self-cleavage of 0.02.
In the case of A33G A64G A94G A96G, the self-cleavage is reported as 0.65.
In the case of U12C A13U G44A A64G A86U A126G, the self-cleavage is reported as 0.26.
U39C U49C A54U gave a self-cleavage of 0.4.
U12C A86G U100C showed a self-cleavage of 1.92.
A11C U39C A91G showed a self-cleavage of 2.11.
With A62U G65A U122C the self-cleavage was 1.05.
Work on A23G A36G A66G A92G A111G U132C yielded a self-cleavage of 0.01.
For A33U U38A A62U, the self-cleavage was 1.58.
Work on A11U A91G A96G A118G yielded a self-cleavage of 1.36.
With U12A U70C A126G the self-cleavage was 0.61.
Variant A5G G7U A63G A67G has a self-cleavage of 1.19.
Variant G8A A54G C101A A111G has a self-cleavage of 0.04.
U39C U57C U127C showed a self-cleavage of 0.99.
With A78G A91G A110U the self-cleavage was 0.26.
A18U A22G G41A gave a self-cleavage of 1.13.
With A78U A110U A116G the self-cleavage was 0.03.
Work on U26C U122C C128A yielded a self-cleavage of 1.09.
Variant A30G C112A A134G has a self-cleavage of 0.01.
In the case of A51G C101A A118G, the self-cleavage is reported as 0.07.
With A63U A82G A118G U132C the self-cleavage was 0.22.
Work on A27G U43A U103C U108A yielded a self-cleavage of 0.03.
Variant U87C U108C U122G has a self-cleavage of 0.02.
A47G A55G A67G showed a self-cleavage of 0.71.
With U19C U49A U102A A125G A135U the self-cleavage was 0.12.
Work on A23G A69G G115U U127C yielded a self-cleavage of 0.06.
Work on A22G A64G A117G A126U yielded a self-cleavage of 1.11.
With A5G A11U A23G U37C U70C U122C U127C the self-cleavage was 0.15.
Variant U12C A60G U70C U103C has a self-cleavage of 0.11.
A78G A90G A116C showed a self-cleavage of 0.
With A11G U57C A62G the self-cleavage was 1.07.
For G15A C34A A95G, the self-cleavage was 0.66.
A52U U57A A129U showed a self-cleavage of 0.98.
For A11U A90G U131C, the self-cleavage was 0.47.
Variant U43C A91G G119A has a self-cleavage of 1.64.
U19A A51U A126G gave a self-cleavage of 0.94.
Variant A30G A60G A66G A117G has a self-cleavage of 1.24.
In the case of A30G A64G U87C A118G, the self-cleavage is reported as 0.6.
